# B1: GLP1-hFc (Fc fusion)
# chain: HAEGTFTSDVSSYLEGQAAKEFIAWLVKGRGGGGGSGGGGSGGGGS[sequence of human IgG1 Fc not given]
# B2: A-GLP1-hFc (Fc fusion)
# chain: AHAEGTFTSDVSSYLEGQAAKEFIAWLVKGRGGGGGSGGGGSGGGGS[sequence of human IgG1 Fc not given]
# B3: Q-GLP1-hFc (Fc fusion)
# chain: QHAEGTFTSDVSSYLEGQAAKEFIAWLVKGRGGGGGSGGGGSGGGGS[sequence of human IgG1 Fc not given]
# B4: desH-GLP1-hFc (Fc fusion)
# chain: AEGTFTSDVSSYLEGQAAKEFIAWLVKGRGGGGGSGGGGSGGGGS[sequence of human IgG1 Fc not given]
# B5: Comparator: GLP1 analogue having the amino acid sequence characteristics of LY2189265 fused to hIgG4 Fc domain (Fc fusion)
# chain: HGEGTFTSDVSSYLEEQAAKEFIAWLVKGGGGGGGSGGGGSGGGGSA[sequence of human IgG4 Fc with S228P F234A L235A (EU numbers) not given]
# Target: human GLP1 receptor (human, UniProt P43220 24-463)
# Experiment: cell-based or functional assay
row,Binder,"EC50 (luciferase assay, cAMP-responsive Cre-Luc reporter cells) [nM]"
1,B1,0.147
2,B2,120
3,B3,135
4,B4,2560
5,B5,0.059

# — patent US20190091296A1 (Regeneron, published 2019)
